# Source: the RNAGym collection of RNA variant scans (doi:10.1093/nar/gkz1192)
# The source gives no read counts; variants with many changes may rest on few reads.
# B1: CPEB3 Ribozyme (parent)
# chain: UAACAGGGGGCCACAGCAGAAGCGUUCACGUCGCAGCCCCUGUCAGAUUCUGGUGAAUCUGCGAAUUCUGCUGUAUAUCUC
# Variants of: B1
# Test: self-cleavage, relative activity (ratio to wild type); higher = more cleavage; in vitro, sequencing
# Procedure, shortened: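 Libraries of CPEB3 self-cleaving ribozyme mutants came from rounds of error-prone PCR and carried barcodes, which DNA sequencing matched to variants. In vitro transcription used T7 RNA polymerase at 37°C for 5 hours, with a further 15 min in DNase I before EDTA stopped the reaction; the ribozymes cleaved during both steps. The RNA was reverse transcribed with template switching and sequenced on Illumina. Relative activity is the cleaved/total read fraction of a variant divided by that of the unmutated ribozyme, averaged over three batches with at least 5 reads.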
row,Variant,self-cleavage
1,U25C U58C U80C,0.55
2,U25C U60A A65G,0.23
3,U25C U60A U69C,0.1
4,U25C U60A U72A,0.05
5,U25C U60A U74A,0.27
6,U25C U60A U78C,0.17
7,U25C U60A U78C C81A,0.21
8,U25C U60C A64G U78C,0.27
9,U25C U60C C62U G70A,0.09
10,U25C U60C U69C G70A,0.12
11,U25C U60C U72C,0.15
12,U25C U60C U74A U80A,0.4
13,U25C U60C U74C U78C,0.17
14,U25C U60C U80C,0.27
15,U25C U60C U80G,0.49
16,U25C U66A U67C,0.22
17,U25C U66A U69C,0.22
18,U25C U66A U78C,0.32
19,U25C U66C A75U,0.32
20,U25C U66C U72G U80C,0.42
21,U25C U66C U80C,0.47
22,U25C U67A U80C,0.08
23,U25C U67C A75U,0.17
24,U25C U67C U69C,0.15

row,Variant,self-cleavage
1,U25C U67C U72A,0.07
2,U25C U67C U72C,0.19
3,U25C U67C U76A,0.06
4,U25C U67C U80C,0.13
5,U25C U69A U72C,0.33
6,U25C U69A U76A U78C,0.25
7,U25C U69A U80A,0.21
8,U25C U69C A75G,0.13
9,U25C U69C A77U,0.13
10,U25C U69C U72C U78C,0.06
11,U25C U72A G73U,0.39
12,U25C U72A U78A,0.17
13,U25C U72C U76C,0.19
14,U25C U72G U80C,0.08
15,U25C U76A A77G U80A,0.4
16,U25C U76C A77G,0.45
17,U25C U78A U80C,0.18
18,U25G A28G A35U,0.26
19,U25G A35G U60C,0.42
20,U25G A35U A65C A77G,0.09
21,U25G A35U U67A,0.18
22,U25G A45G U58C,0.14
23,U25G A45G U60C,0.37
24,U25G A45U A57G,0.07

row,Variant,self-cleavage
1,U25G A45U U49A U58A U66C,0.27
2,U25G A45U U60C,0.07
3,U25G A47G U51C U58C,0.32
4,U25G A47G U74C,0.29
5,U25G A56G U66C A77G,0.07
6,U25G A65G U72A,0.08
7,U25G C27U G30A G33C C38U A57C A65U,0.04
8,U25G C27U U31A,0.27
9,U25G C27U U31A C44U A64U U76C,0.11
10,U25G C29G U66C U80C,0.1
11,U25G C32A A45U,0.14
12,U25G C32G A56U A57U U80C,0.24
13,U25G C34G A64G,0.12
14,U25G C44A A64G,0.56
15,U25G G30A A57G U58C G70C,0.08
16,U25G G33A A35G U72C G73C U78C,0.13
17,U25G G33A U41C,0.09
18,U25G U26A A35G A47U A56G C59U A65G,0.17
19,U25G U26A A64U A65G U80A,0.08
20,U25G U26A A77G U80C,0.12
21,U25G U26A U43C U48C A64G,0.05
22,U25G U26A U72C,0.38
23,U25G U26C C39U U41A A45U U51A U67C,0.12
24,U25G U26G U41C A47G,0.1

row,Variant,self-cleavage
1,U25G U31C U41C U78C,0.08
2,U25G U31C U51A,0.18
3,U25G U31C U74A,0.34
4,U25G U31C U76A,0.12
5,U25G U41G U48C U54C A64G U80C,0
6,U25G U43C A47U A64G,0.08
7,U25G U43C U48C,0.28
8,U25G U43C U69C,0.12
9,U25G U48C A64G U69A U78C C81U,0.06
10,U25G U49C A56G,0.43
11,U25G U49C A57G,0.13
12,U25G U49C U74A,0.05
13,U25G U51A U74C U76A,0.56
14,U25G U51C A56U U60A U69C A75G U80C,0.11
15,U25G U54A U58C U66C,0.13
16,U26A A28C A35G A57C,0.35
17,U26A A28C C44A U48C G52U,0.11
18,U26A A28G A35U U51C U80A,0.11
19,U26A A28G A45G U66C,0.14
20,U26A A28G A45G U74C,0.5
21,U26A A28G A56U U58A,0.14
22,U26A A28G A77G,0.41
23,U26A A28G C39G,0.05
24,U26A A28G C40A A56G U60A,0.05

row,Variant,self-cleavage
1,U26A A28G C50G,0.09
2,U26A A28G G36C,0.19
3,U26A A28G U31C A45G A64U,0.22
4,U26A A28G U43C U78G,0.14
5,U26A A28G U49C U80C,0.05
6,U26A A28G U51C G63U U78C U80C,0.26
7,U26A A28G U60A A75G,0.12
8,U26A A28G U72C,0.27
9,U26A A28U A45U U49C U54C U58C A77G,0.1
10,U26A A28U A56G,0.54
11,U26A A28U G33A,0.17
12,U26A A28U U43A U69C,0.07
13,U26A A28U U43C C59U,0.09
14,U26A A28U U48A U60A G63A U69C,0.06
15,U26A A28U U49A U60C,0.93
16,U26A A28U U51A A64G,0.36
17,U26A A28U U54C U66C U72C,0.16
18,U26A A28U U54G U58C A65G U67A A77G,0.09
19,U26A A28U U60A U67A,0.16
20,U26A A35C U41A A64U G73A U78C,0.1
21,U26A A35C U54C A65C,0.09
22,U26A A35G A47G U58A,0.62
23,U26A A35G A56G A57G,1.12
24,U26A A35G A56U A65G,0.75

row,Variant,self-cleavage
1,U26A A35G A57G A65G,0.92
2,U26A A35G C37U U60C U66C U76C,0.09
3,U26A A35G G53A A56G A57G,1.04
4,U26A A35G U43C G70A U72C U74C,0.16
5,U26A A35G U54A U58C U60C A65G U72A,0.58
6,U26A A35G U54C U72C,1.26
7,U26A A35G U58C A77G,1.22
8,U26A A35G U66C G70A,0.37
9,U26A A35G U67A,1.38
10,U26A A35G U69C,0.97
11,U26A A35G U69G,1.18
12,U26A A35U A64G,0.25
13,U26A A35U A64G U67A U69C,0.05
14,U26A A35U A75G C79U,0.21
15,U26A A35U U41A A47U U60C U66C,0.14
16,U26A A35U U41A G55A U60C,0.07
17,U26A A35U U51C A65G U66C,0.1
18,U26A A35U U58A,0.41
19,U26A A35U U67C,0.15
20,U26A A35U U67C C81U,0.09
21,U26A A35U U69C,0.28
22,U26A A45C A65G U72C,0.19
23,U26A A45C U76A,0.32
24,U26A A45G A56G A57U U67C,0.1

row,Variant,self-cleavage
1,U26A A45G A56G A65G G70A,0.12
2,U26A A45G A56U U74A,0.34
3,U26A A45G A64U,0.4
4,U26A A45G G46A U58A U69C U80G,0.05
5,U26A A45G U49C U58C,0.11
6,U26A A45G U54A U72C,0.84
7,U26A A45G U66C A77U U80C,0.21
8,U26A A45G U69C U72C,0.21
9,U26A A45G U74C,1.07
10,U26A A45G U78C,0.55
11,U26A A45G U80C,0.76
12,U26A A45U A47U U60A,0.69
13,U26A A45U A56G,0.32
14,U26A A45U A64G A65G U66C U74A,0.12
15,U26A A45U G46U A65U,0.16
16,U26A A45U U48C U54A U58C U66C U72G,0.07
17,U26A A45U U51C A57U G63C A64G,0.04
18,U26A A45U U54G G61C C62U U67C U69C,0.06
19,U26A A45U U67C,0.16
20,U26A A45U U78A U80C,0.29
21,U26A A47G A75G,0.68
22,U26A A47G C62U,0.1
23,U26A A47G G63A A64G U66C U78C,0.08
